Results published in a compilation of properties of binary mixtures (doi:10.1016/j.molliq.2020.112481).
Some of these densities may be calculated back from excess volumes.

Assay: xn = mol fraction of the nth substance listed
Conditions: 100 kPa

CCCC[n+]1ccn(C)c1.O=S(=O)([O-])C(F)(F)F + OCCO
mass density [kg/m3]
Conditions | x1 = 0.0926 | x1 = 0.1936 | x1 = 0.2985 | x1 = 0.3912 | x1 = 0.4999 | x1 = 0.6055 | x1 = 0.6922 | x1 = 0.7966 | x1 = 0.9035 | x1 = 1
298.15 K | – | 1195.2 | 1219.5 | 1234.9 | 1249.2 | 1260.9 | – | 1280 | 1289 | 1297.5
303.15 K | – | 1191.8 | 1216 | 1231.3 | – | 1257.2 | – | 1276.2 | 1285.2 | 1293.5
308.15 K | 1153.6 | 1188.5 | – | 1227.8 | – | 1253.5 | – | – | 1281.4 | 1289.5
313.15 K | 1150.3 | 1185 | – | 1224.2 | – | 1249.8 | – | 1268.6 | 1277.6 | 1285.5
318.15 K | – | 1181.6 | 1205.2 | 1220.6 | – | 1246.1 | 1254.8 | 1264.8 | 1273.8 | 1281.5
323.15 K | 1143.6 | – | 1201.7 | – | 1230.8 | 1242.4 | 1251 | – | 1270 | 1277.5

OCCO + CCCC[n+]1ccn(C)c1.O=S(=O)([O-])C(F)(F)F
x2 = 0
Conditions | mass density [kg/m3]
313.15 K | 1099.1
323.15 K | 1092
